# PubChem BioAssay AID686979 (National Center for Advancing Translational Sciences (NCATS), 2013)
# Values joined by “and” are separate entries in the source; they are usually repeats but may differ in a detail not shown here. Equal values may be shown once. Out of some 420,000 compounds screened, about 50,000 (12%) were called active. This list was built around the results that the source calls inconclusive (neither active nor inactive); the mix of calls is not that of the screen. The call rests on the fitted dose curve; in most records, active means well fitted inhibition curve with a large enough effect; inconclusive means small, poorly fitted or top-dose-only effect; inactive means flat fitted curve, though single readings scatter. A potency beside an inconclusive call is a rough fit, not a confirmed value. *1 amine or outer side, *2 acyl side, *3 side chain or, on linkers, in order; H or OH if unused. Where a SMILES comes first, the peptide text is derived from it. Bridges are numbered along the chain shown (N, C = ends). [ ]: non-standard residue; d: D form. ξ: configuration not given here. hSer(Ph(2-I,4-NO2,6-CO)) = O=C([C@H](CCOc1c(I)cc([N+](=O)[O-])cc1C(=O)[*:3])N[*:1])[*:2]; ξD = NC(CC(=O)O)C(=O)O
# Assay: qHTS for Inhibitors of human tyrosyl-DNA phosphodiesterase 1 (TDP1): qHTS in cells in presence of CPT; further: nearly all actives have a fitted effect of over 55% in size
# Conditions: chicken DT40 Tdp1-/-;hTDP1 cells + 20 nM CPT, ATP luminescence, 48 h; activity change, negative = growth inhibition: at 46.2 µM (top of the series)
# Procedure, shortened: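 Cell growth measured by CellTiter-Glo luminescence after a minimum 48 h, 37 C compound exposure with 20 nM CPT in Tdp1-knockout DT40 cells stably expressing hTDP1, seeded 400/well; qHTS titration format.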
# On the % scale 0 is the no-effect control and ±100 the full control effect; potency means the concentration at half of the fitted maximal effect; tags describe the fitted curve by direction and shape.
SMILES,Potency,"activity change, negative = growth inhibition"
COC(=O)c1scc(-c2ccc(C)cc2)c1S(=O)(=O)N1CCN(c2cccc(Cl)c2)CC1,active: 18.4 µM,
O=C(NO)c1ccccc1,active: 24.3 µM,
O=C(NC(=O)c1csnn1)Nc1ccccc1Cl,,inactive: 1.03%
CCc1ccccc1NC(=O)Cn1c(=O)n(-c2ccc(C)cc2)c(=O)c2cc(OC)c(OC)cc21,,inactive: 2.91%
COC(=O)[C@]1(CC(C)C)N[C@H](c2ccc(SC3CCCCC3)cc2)[C@@H]2C(=O)N(C)C(=O)[C@@H]21,"inconclusive: 18.4 µM [inhibitor, single point]",
Cc1ccc(N(Cc2cc3ccc(C)cc3[nH]c2=O)C(=O)c2ccco2)c(C)c1,"inconclusive: 20.6 µM [inhibitor, single point]",
Cn1c(=O)sc2cc(NS(=O)(=O)c3ccc(C(C)(C)C)cc3)ccc21,,inactive: -14%
Cc1ccc(S(=O)(=O)c2nc(-c3cccs3)oc2N2CCC(C)CC2)cc1,active: 23.1 µM,
"C[C@@H]1NC(=O)c2cc([N+](=O)[O-])cc(I)c2OCC[C@@H](C(=O)NC(CC(=O)O)C(N)=O)NC(=O)[C@H](CCC(=O)O)NC1=O (some centres not stated) (AE[hSer(Ph(2-I,4-NO2,6-CO))][ξD]-NH2; lactam N-3)","inconclusive: 0.731 µM [inhibitor, full curve, poor fit]",
O=c1c2cc(-c3ccccc3)sc2nc2n1N=C(c1ccccc1)CS2,"inconclusive: 29.1 µM [inhibitor, single point]",
CN(Cc1cccc(Cl)c1Cl)C(=O)c1cccc(S(=O)(=O)N2CCN(Cc3ccccc3)CC2)c1,"inconclusive: 23.1 µM [inhibitor, single point]",
O=C(COc1cccnc1[N+](=O)[O-])NC1CCS(=O)(=O)C1 (configuration not stated),,inactive: -7.09%
COc1ccc(-c2ccc(C(=O)NCc3ccncc3)c3occc23)c(C)c1,active: 2.06 µM,
COc1ccc(C)cc1S(=O)(=O)Nc1ccc(-n2c(C)nc3ccccc3c2=O)cc1,"inconclusive: 20.6 µM [inhibitor, single point]",
O=C(NC1CC1)c1cccc(NC(=O)c2cn3ccccc3n2)c1,"inconclusive: 29.1 µM [inhibitor, single point]",
Cc1nnc(NC(=O)C23CC4CC(C)(CC(C)(C4)C2)C3)s1,"inconclusive: 29.1 µM [inhibitor, single point]",
COc1ccc(/C=C/CN2CCCC(C(=O)c3cc(F)ccc3F)C2)cc1 (configuration not stated),"inconclusive: 25.9 µM [inhibitor, single point]",
CCOc1ccc(NC(=O)NC2CCOC(C)(C)C2)cc1 (configuration not stated),,inactive: 10.1%
COc1cc2c(c(OC)c1OC)C(c1ccc3c(c1)OCO3)CC(=O)O2 (configuration not stated),,inactive: 1.37%
CC1Cc2cc(/C(O)=C3/C(=O)C(=O)N(CCCn4ccnc4)C3c3cccc([N+](=O)[O-])c3)ccc2O1 (configuration not stated),,inactive: -0.822%
CC(C)c1ccccc1NC(=S)NN(Cc1ccccc1)c1ccccc1,"inconclusive: 25.9 µM [inhibitor, single point]",
CC(=O)/C(=C/c1ccc(N(C)C)cc1)C(=O)c1ccccc1,"inconclusive: 29.1 µM [inhibitor, single point]",
Cc1sc(N(C(=O)CCc2ccccc2)c2ccc(C(=O)O)cc2)nc1-c1ccccc1,"inconclusive: 29.1 µM [inhibitor, single point]",

SMILES,Potency,"activity change, negative = growth inhibition"
CCOC(=O)N1CCN(S(=O)(=O)CCNC(=O)c2ccc(F)cc2)CC1,,inactive: -5.01%
COc1ccc(C(=O)NCc2cn3ccc(C)cc3n2)cc1,,inactive: -3.89%
CCCn1c(SCC(=O)N2CC(=O)Nc3ccccc32)nc2ccccc21,,inactive: 6.45%
C=COCCNC(=S)Nc1ccccc1,,inactive: 19.4%
CC1Nc2ncnc(N3CCN(c4ccccc4)CC3)c2N(Cc2ccc(Br)cc2)C1=O (configuration not stated),"inconclusive: 29.1 µM [inhibitor, single point]",
CC(C)(C)C1(O)CCN2CC3c4ccccc4CCc4cccc(c43)C2C1 (configuration not stated),active: 16.8 µM,
CN(Cc1ccccc1)c1nc2c(S(=O)(=O)c3cccc(Cl)c3)nnn2c2ccsc12,"inconclusive: 29.1 µM [inhibitor, single point]",
CCn1c(CNC(=O)c2cc(OC)c(OC)c(OC)c2)cc2ccccc21,"inconclusive: 4.11 µM [inhibitor, single point]",
COc1cc(CN2CCC(C(=O)NCCC(C)C)CC2)ccc1OCc1ccccc1,"inconclusive: 16.4 µM [inhibitor, single point]",
O=S(=O)(NCCc1csc2nc(-c3ccc(Cl)cc3)nn12)c1cccs1,active: 18.4 µM,
CCC(C)NC(=O)/C(=C/c1ccco1)c1ccccc1 (configuration not stated),"inconclusive: 29.1 µM [inhibitor, single point]",
CS(=O)(=O)c1ccc(NC(=O)c2cc3c(cc2Cl)N2CCCCCC2=NS3(=O)=O)cc1,,inactive: -5.45%
Cc1ccc2c(c1)N(C(=O)N1CCC(C(=O)Nc3cccc(F)c3)CC1)CCO2,"inconclusive: 29.1 µM [inhibitor, single point]",
COc1ccc(S(=O)(=O)N2CCC[C@@H]2C(=O)N2CCC[C@H]2C(=O)NCc2ccncc2)cc1C,"inconclusive: 14.6 µM [inhibitor, partial curve]",
CCOCC(=O)Nc1nc(-c2ccccc2)c(CC)s1,,inactive: -26.5%
CCC1CN(S(=O)(=O)c2cc(-c3cc(C)no3)ccc2OC)c2cc(Cl)ccc2O1 (configuration not stated),"inconclusive: 20.6 µM [inhibitor, single point]",
CCCC(=NC(C)CC)C1=C(O)CC(c2ccccc2)CC1=O (configuration not stated),"inconclusive: 29.1 µM [inhibitor, single point]",
COc1cccc(C(=O)NC2CCCC2)c1,,inactive: -2.29%
CN1CCN(c2nc3cc(C(F)(F)F)ccc3n3cccc23)CC1,"inconclusive: 33.5 µM [inhibitor, single point] and inconclusive: 25.9 µM [inhibitor, single point] and inconclusive: 23.1 µM [inhibitor, single point]",
O=C1CN(C(=O)c2ccc(S(=O)(=O)N3CCCC3)cc2)C(c2ccc(F)cc2)c2cc(Br)ccc2N1 (configuration not stated),"inconclusive: 20.6 µM [inhibitor, single point]",
CCOC(=O)C1(C)CCCCCN1C(=O)c1ccc(C(F)(F)F)nc1C (configuration not stated),"inconclusive: 16.4 µM [inhibitor, partial curve]",
CC1CCN(Cc2c(O)ccc3c(=O)c(-c4nc5ccccc5s4)c(N)oc23)CC1,"inconclusive: 29.1 µM [inhibitor, single point]",
COC(=O)c1ccccc1NC(=O)NCc1ccc2c(c1)CCN2C(=O)c1ccccc1,active: 23.1 µM,

SMILES,Potency,"activity change, negative = growth inhibition"
CC(C)(C)c1ccc(C(=O)Nc2cccc(-n3cnnn3)c2)cc1,"inconclusive: 2.31 µM [inhibitor, partial curve]",
Cc1ccc(OC(C)C(=O)N=Nc2c(O)[nH]c3ccc([N+](=O)[O-])cc23)cc1 (configuration not stated),"inconclusive: 29.1 µM [inhibitor, single point]",
C/C=C(/C)C(=O)O[C@@H]1c2cc3c(c(OC)c2-c2c(cc(OC)c(OC)c2OC)[C@@H](OC(C)=O)[C@@H](C)[C@H]1C)OCO3,active: 18.4 µM,
CCOc1ccc(S(=O)(=O)N2CCCC(C(=O)NCc3ccncc3)C2)cc1 (configuration not stated),"inconclusive: 11.6 µM [inhibitor, partial curve, poor fit]",
COCc1[nH]c(=S)[nH]c(=O)c1C,,inactive: 13.9%
O=C(COc1ccccc1)Nc1cccc(-c2nc3cc4ccccc4cc3[nH]2)c1,active: 14.6 µM,
COc1cccc(N2CCN(CC(=O)c3c(C)[nH]c4ccccc34)CC2)c1,"inconclusive: 29.1 µM [inhibitor, single point]",
CCN1C(=NCc2ccco2)N[C@@H](c2cccc(C(F)(F)F)c2)C(C(=O)OC)=C1C,active: 16.4 µM,
COc1ccccc1Nc1cc(C(=O)NCCCN(C)C2CCCCC2)c2ccccc2n1,"inconclusive: 20.6 µM [inhibitor, single point]",
CC1CCN(C(c2ccc(N(C)C)cc2)c2nnnn2Cc2ccc(F)cc2)CC1 (configuration not stated),"inconclusive: 29.1 µM [inhibitor, single point]",
COc1ccc(N(C(C)C(=O)N2CCC(Cc3ccccc3)CC2)S(C)(=O)=O)cc1 (configuration not stated),active: 6.51 µM,
COc1ccc(-c2nn(C)c3sc(C(=O)NCc4ccco4)cc23)cc1OC,"inconclusive: 20.6 µM [inhibitor, partial curve, poor fit]",
CCCCc1cc(=O)oc2cc(C)cc(OCC(=O)NCc3cccnc3)c12,"inconclusive: 29.1 µM [inhibitor, single point]",
CCc1ccccc1NC(=O)CN(c1cc(C(F)(F)F)ccc1Cl)S(=O)(=O)c1ccccc1,"inconclusive: 29.1 µM [inhibitor, single point]",
Cc1ccc(S(=O)(=O)N2CC(C)N(S(C)(=O)=O)C2)cc1 (configuration not stated),,inactive: 7.03%
CN1CCN(CCC(=O)N/N=C/c2cc([N+](=O)[O-])ccc2O)CC1,"inconclusive: 29.1 µM [inhibitor, single point]",
O=c1c2oc3ccccc3c2n(Cc2ccccc2Cl)c(=O)n1Cc1ccc2c(c1)OCO2,,inactive: -2%
O=S(=O)(c1cnccc1N1CCN(/N=C/c2ccc(Br)cc2)CC1)N1CCCCC1,active: 18.4 µM,
CN(C)c1ccc(-c2noc(C3CCN(S(=O)(=O)c4cccc(Cl)c4)CC3)n2)cc1,"inconclusive: 25.9 µM [inhibitor, single point]",
Cc1cc(C)cc(NC(=O)[C@H]2O[C@@H]3OC(C)(C)O[C@@H]3[C@H]3OC(C)(C)O[C@H]32)c1,,inactive: -8.23%
CCOc1ccc(-c2nc(C#N)c(NCC(C)C)o2)cc1,,inconclusive: -32.5% [inhibitor]
